Experimental data from the supplement of paper PMC10338343.
± gives the standard deviation. The list shows a part of the results, in another mix than the full data.
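Note: 1 nM active piRISC with 0.1 nM target library at 33 °C single turnover.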

The sequences below were run on MIWI (PIWIL1) piRISC loaded with piRNA #1 (30 nt) (assay: pre-steady-state target cleavage rate (min^-1); MIWI and MILI are mouse PIWI proteins and EfPiwi is from a freshwater sponge; tags in brackets are library labels; higher = faster piRNA-guided slicing of the target). Conditions: guide: piRNA #1 5'p-UGAGGUAGUAGGUUGUAUAGUAUCCAGAGG; auxiliary factor: 500 nM mouse GTSF1.
Procedure, shortened: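 The pre-steady-state cleavage rate was derived from a burst-and-steady-state fit of Cleave-'n-Seq data. For these assays, 1 nM active affinity-purified piRISC loaded with a single synthetic guide was mixed with […] a transcribed, DNA-blocked target RNA library in HEPES–potassium acetate buffer at 33 °C, with or without 500 nM GTSF1 partner protein, for 0–8 or 0–960 min. Sequencing counts of uncleaved targets were normalised to depth and to weakly complementary targets, and k3 was capped at 0.0001 min^-1 after three trials were pooled.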
With CCUCUGGAUACUAUUCAACCUACUACCACA the “pre-steady-state target cleavage rate” value was 2.19 ± 0.18. With GGUCUGGAUACUAUACAACCUUGUACCUCA the “pre-steady-state target cleavage rate” value was 0.0319 ± 0.0072. CCUCUGGAUACUAUACAACCAACUACCUCA was tested, and the “pre-steady-state target cleavage rate” value was 0.235 ± 0.031. With GCUCUGGAUACUAUUCAACCUUCUACCUCA the “pre-steady-state target cleavage rate” value was 0.589 ± 0.031. For GCUCUGGAUACUUUACUACCUACUACCUCA, the “pre-steady-state target cleavage rate” value was 1.36 ± 0.11. For GGAGACCUUACUAUACAACCUACUACUCUCA, the “pre-steady-state target cleavage rate” value was 1.58 ± 0.11. For GGUCUGGAUAGUAUACAAGCUACUACCUCA, the “pre-steady-state target cleavage rate” value was 0.368 ± 0.042. In the case of GGAGAGCAUACUAUACAUCCUACUACCUCA, the “pre-steady-state target cleavage rate” value is reported as 1.49 ± 0.1. In the case of GGAGACCUAUGAUAUGUACCUACUUACCUCA, the “pre-steady-state target cleavage rate” value is reported as less than 0.0001. GGAGACGAUACCAUACAACCUACUACCUCA was tested, and the “pre-steady-state target cleavage rate” value was 1.53 ± 0.084. In the case of GGUCUCGAAACUAUACAACCUACUACCUCA, the “pre-steady-state target cleavage rate” value is reported as 1.57 ± 0.11. With GGACUGGAUUCUAUACAACCUAGUACCUCA the “pre-steady-state target cleavage rate” value was 0.496 ± 0.074. With GGAGUGGAUACGAUACAACCUACUACCUCA the “pre-steady-state target cleavage rate” value was 1.56 ± 0.08. For GGACGGGAUACUAUACAACCUACUACCUCA, the “pre-steady-state target cleavage rate” value was 1.66 ± 0.12. With GCUCUGGAUACUAUAGAACCUAGUACCUCA the “pre-steady-state target cleavage rate” value was 0.0062 ± 0.0022. GGACUGGUUACUAUACAACCUACUACCUGA was tested, and the “pre-steady-state target cleavage rate” value was 0.381 ± 0.082. With GCUCUGGAUACUAUACAACCUCCUACCUCA the “pre-steady-state target cleavage rate” value was 1.2 ± 0.052. With GGAGAGGAUACUAUAAACCUACUACCUCA the “pre-steady-state target cleavage rate” value was 0.835 ± 0.085. GGUCUGGAUACUUUUCAACCUACUACCUCA was tested, and the “pre-steady-state target cleavage rate” value was 1.37 ± 0.11. With GCUCUGGAUAGUAUACAACCUACUACCACA the “pre-steady-state target cleavage rate” value was 0.59 ± 0.043. In the case of CCUCUGGAUUCUAUACAACCUACUACCACA, the “pre-steady-state target cleavage rate” value is reported as 0.876 ± 0.067. For GGUCUGGAUACUUUACAACCUACUUCCUCA, the “pre-steady-state target cleavage rate” value was 0.0036 ± 0.0016. In the case of GGAGAGCAUACUAUACAACCUAGUACCUCA, the “pre-steady-state target cleavage rate” value is reported as 0.331 ± 0.03. GGUCUGGAUACUACACAACCUACUACCUCA was tested, and the “pre-steady-state target cleavage rate” value was 1.79 ± 0.1. In the case of CCUCAGGAUACUAUACAACCUACUACGUCA, the “pre-steady-state target cleavage rate” value is reported as 1.31 ± 0.084. With GCUGUGGAUACUAUAGAACCUACUACCUCA the “pre-steady-state target cleavage rate” value was 1.5 ± 0.09. GCUCUGGAUACUUUAGAACCUACUACCUCA was tested, and the “pre-steady-state target cleavage rate” value was 0.909 ± 0.055. In the case of GCUCUGGAUACUAUACAUCCAACUACCUCA, the “pre-steady-state target cleavage rate” value is reported as 0.128 ± 0.021. GGAGAGGAUACUAUACAACCUAGCUACCUCA was tested, and the “pre-steady-state target cleavage rate” value was 0.126 ± 0.013. CCUCUGGAUACUAUACAACCUAGUACGUCA was tested, and the “pre-steady-state target cleavage rate” value was 0.075 ± 0.021. CCUCUGGUUACUAUACAACCUAGUACCUCA was tested, and the “pre-steady-state target cleavage rate” value was 0.232 ± 0.043. GGAGUGGUUACUAAACAACCUACUACCUCA was tested, and the “pre-steady-state target cleavage rate” value was 1.32 ± 0.073. For GGACUGGUUACUAUACAACCUACUACGUCA, the “pre-steady-state target cleavage rate” value was 0.485 ± 0.066. For GCUCUGGAUACUAUACAACCUAGUACCUCA, the “pre-steady-state target cleavage rate” value was 0.452 ± 0.062. With GGAGACGAUACUAUACAACCUACUGACCUCA the “pre-steady-state target cleavage rate” value was 0.69 ± 0.04. With GGAGACCUAUGUAUACAAGGUACUACCUCA the “pre-steady-state target cleavage rate” value was 0.00401 ± 0.0024. In the case of GGAGAGGAUACUAUACAACCUUCUAGCUCA, the “pre-steady-state target cleavage rate” value is reported as 0.0222 ± 0.0082. With GGAGACCUUACUAUAACAACCUACUACCUCA the “pre-steady-state target cleavage rate” value was 0.621 ± 0.07. In the case of GGAGAGGAUACUAUACAACCUUCAACCUCA, the “pre-steady-state target cleavage rate” value is reported as 0.24 ± 0.025. In the case of GGAGACCUAAGAAUACAACCUACUACCUCA, the “pre-steady-state target cleavage rate” value is reported as 0.00513 ± 0.0038.
